Measurements published in PubChem BioAssay (NCI).
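Five compound concentrations were applied to cells in 96-well plates for 48 hours; endpoints were derived by simple linear interpolation of the resulting dose-response curve. Here, GI50 denotes the concentration required for 50% inhibition of growth.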 Not every entry of the source has a single result; some have several. They are shown here; other results are not. The source may hold further records. The tests behind the records often covered other concentration ranges, not given here; a value can be the end of its range.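 TGI: concentration producing complete growth inhibition.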

How the values were obtained:
Test in all cases: NCI-60 cell line screen, 48 h
SW-620 colon = tested on: SW-620 colon
A549 NSCLC = tested on: A549 NSCLC
SNB-19 CNS = tested on: SNB-19 CNS
SK-MEL-2 melanoma = tested on: SK-MEL-2 melanoma
ACHN renal = tested on: ACHN renal
CCRF-CEM leukemia = tested on: CCRF-CEM leukemia
NCI-H23 lung = tested on: NCI-H23 lung
SF-268 CNS = tested on: SF-268 CNS
MDA-MB-231 breast = tested on: MDA-MB-231 breast

CC1=C(N2CC2)C(=O)C(CO)=C(N2CC2)C1=O
TGI (SW-620 colon): 27.3 nM and 1.62 µM | GI50 (A549 NSCLC): 2.86 nM [1 test] and 62.2 nM [mean of 5 tests] | TGI (A549 NSCLC): 35 nM [1 test] and 4.62 µM [mean of 5 tests] | TGI (SNB-19 CNS): 30.9 nM and 1.8 µM | GI50 (SK-MEL-2 melanoma): 21.1 nM [1 test] and 226 nM [mean of 2 tests] | TGI (ACHN renal): 4.65 nM and 122 nM | TGI (CCRF-CEM leukemia): 6.89 nM and 191 nM | TGI (NCI-H23 lung): 7.65 nM and 342 nM | TGI (SF-268 CNS): 44.2 nM and 694 nM | TGI (MDA-MB-231 breast): 634 nM and 6.9 µM
